We go through 48 molecules from PubChem BioAssay AID360 (National Center for Advancing Translational Sciences (NCATS), 2006).

Structures are written as SMILES. The campaign covered roughly 48,000 compounds. About 550 (1.1%) were called active. About 4% were inconclusive and are not listed. Cut-off read from the data, not from the text of the source: active = potency below about 15 µM; inconclusive = mostly about 16 µM to 33 µM; inactive = weaker than that. Some of the results follow. Some results are limits rather than exact numbers.
Potency is the fitted concentration of half-maximal effect.

Sequence of UniProt P04062 (P04062 whole entry, looked up): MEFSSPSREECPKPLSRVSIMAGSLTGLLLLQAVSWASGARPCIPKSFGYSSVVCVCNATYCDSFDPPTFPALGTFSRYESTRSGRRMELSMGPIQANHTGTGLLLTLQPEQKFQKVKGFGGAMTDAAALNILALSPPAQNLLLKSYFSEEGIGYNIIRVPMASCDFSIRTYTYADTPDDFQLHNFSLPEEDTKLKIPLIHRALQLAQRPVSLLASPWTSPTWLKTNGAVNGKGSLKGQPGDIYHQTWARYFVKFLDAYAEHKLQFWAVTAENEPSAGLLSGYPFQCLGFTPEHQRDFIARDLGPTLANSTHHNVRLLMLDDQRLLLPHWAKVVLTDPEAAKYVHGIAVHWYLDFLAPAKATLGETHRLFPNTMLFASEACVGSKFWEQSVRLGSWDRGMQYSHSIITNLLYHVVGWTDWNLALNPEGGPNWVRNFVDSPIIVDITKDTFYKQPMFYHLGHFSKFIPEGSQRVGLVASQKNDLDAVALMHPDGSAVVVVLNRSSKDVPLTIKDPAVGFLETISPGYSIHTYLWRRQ

The target in this assay is Lysosomal acid glucosylceramidase (Homo sapiens) (UniProt P04062). Nature of the assay: Glucocerebrosidase.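 Note: the screen sought inhibitors.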 Conditions: purified enzyme, resorufin glucoside fluorescence (screen aimed at inhibitors), 20 min. From the text:
NCGC Assay Overview: Beta-glucocerebrosidase catalyzes the hydrolysis of beta-glucocerebroside to glucose and ceramide. The inherited deficiency of beta-glucocerebrosidase results in Gaucher disease, which is characterized by a wide variety of symptoms including hepatosplenomegaly, anemia, thrombocytopenia, bony lesions and bone marrow infiltration with characteristic storage cells, known as Gaucher cells. There are also forms of the disorder affecting the central nervous system. Patients with the same genotypes can manifest with diverse clinical presentations and it is believed that improper folding and trafficking of beta-glucocerbrosidase may contribute to the phenotypes observed. Low molecular weight molecules, acting as chaperones, may potentially restore trafficking of misfolded beta-glucocerebrosidase from the endoplasmic reticulum to the lysosomes, thereby enhancing functional lysosomal beta-glucocerebrosidase activity. Using normal beta-glucocerebrosidase, an assay was developed to screen for small molecule inhibitors that could potentially act as molecular chaperones on the mutant forms [developed with NIH investigator Dr. Ellen Sidransky's laboratory]. Two pro-fluorescent substrates were chosen for two screens against a small molecule library. One beta-glucocerebrosidase assay used Resorufin beta-D-Glucopyranoside (Marker Gene Technology Inc.), generating a red fluorescent product. The second assay used Fluorescein di-beta-D-Glucopyranoside, generating a blue fluorescent product. […] The IC50 values of Conduritol B Epoxide, a known glucocerebrosidase inhibitor, were determined to be 87.5 uM and 117 uM, respectively. The use of two difference pro-fluorescent substrates in the screens helped to eliminate false positives. All compounds were screened in a titration series resulting in AC50s (e.g., IC50s or EC50s).
NCGC Assay Protocol Summary: Both enzyme and substrate were diluted in buffer composed of 50mM citric acid/KH2PO4, 10mM sodium taurocholate and 0.01% tween-20 at pH 5.9. The final concentration of the enzyme was 0.2 nM in both assays. The compound library was titrated in 7 to 15 concentrations for the primary screens with a final concentration ranging from 0.6 nM to 50 uM. This particular assay protocol is for the "red" substrate, and it was performed in 1536-well plate format as follows: Red fluorescence substrate assay: 2 uL enzyme 23 nL compound 1 uL substrate (final concentration of 30 uM) Incubate at room temperature (RT) for 20 minutes Read the plate in Viewlux plate reader (Ex=548(7) and Em=600(10)).
As for `CCCCn1c(O)c(C=NC2CCCCC2N)c(=O)[nH]c1=O` (stereo not drawn), the Potency was inactive: > 76.9 µM. Take `O=C(NCc1ccccn1)c1ccccc1Cl`: the Potency is inactive: > 76.9 µM. The figure for `O=C(NCC(c1cccnc1)N1CCN(c2ccc(F)cc2)CC1)Oc1ccccc1` (stereo not drawn) is inactive: > 76.9 µM. Under `Cc1ccc(-c2nc3ccccc3c(=O)n2-n2cccc2)cc1` stands inactive: > 76.9 µM.

Consider `CCN1CCN(c2nc3c(c(=O)[nH]2)CCCC3)CC1`, for which the Potency was inactive: > 76.9 µM. Under `N#Cc1c(/N=C/c2c(O)n(Cc3ccco3)c(=O)[nH]c2=O)sc2c1CCCC2` stands inactive: > 76.9 µM.

Take `O=C(Nc1ccc(OC(=O)N2CCCC2)cc1)N1CCOCC1`: the Potency was inactive: > 76.9 µM. Under `CN1C(=O)N(C)C(=O)C(CCc2ccccn2)(CCc2ccccn2)C1=O` stands inactive: > 76.9 µM; under `CC(=NCc1ccc2c(c1)OCO2)c1c(O)[nH]c(=O)[nH]c1=O`, inactive: > 76.9 µM; under `O=c1[nH]c(=O)n(C2CCCCC2)c(O)c1C1NCCc2ccccc21` (stereo not drawn), inactive: > 76.9 µM. Under `COc1cccc(CNC2CN3CCC2CC3)c1OC` (stereo not drawn) stands inactive: > 76.9 µM; under `CCOc1cc(C(=O)N2CCC3(CC2)OCCO3)cc(OCC)c1OCC`, inactive: > 76.9 µM. The figure for `O=C1CC(C(=O)N2CCC3(CC2)OCCO3)CN1CCc1ccccc1` (stereo not drawn) is inactive: > 76.9 µM; for `C=CCn1c(O)c(C(=O)CCCCCC)c(=O)[nH]c1=O` it is inactive: > 76.9 µM. In the case of `C1CNC2NCCNC2N1` (stereo not drawn), the Potency is inactive: > 76.9 µM. Take `Cc1[nH]c2ccccc2c1/C=N/O`: the Potency is inactive: > 76.9 µM. The figure for `CCC(=NCc1ccc(F)cc1)c1c(O)n(C)c(=O)n(C)c1=O` is inactive: > 76.9 µM. Under `CN(C)CP(=O)(Nc1ccccc1)N(C)C` (stereo not drawn) stands inactive: > 76.9 µM.

With `Cc1cc(OCC(=O)Nc2c(C)n(C)n(-c3ccccc3)c2=O)c2c3c(c(=O)oc2c1)CCC3`, the Potency is inactive: > 76.9 µM. Turning to `O=c1[nH]c(=O)n(C2CCCCCC2)c(O)c1C=NCCCN1CCOCC1`, the Potency entry was “inactive”. Under `CC(C)n1nnnc1CN1CCN(C)CC1` stands inactive: > 76.9 µM; under `CCOCC(=O)NC1CCSC1=O` (stereo not drawn), inactive: > 76.9 µM. Under `O=C(Cc1ccccc1)OCCN1CCCCC1` stands inactive: > 76.9 µM. The figure for `Cc1n[nH]c(C)c1CCN` is inactive: > 76.9 µM. Regarding `Cc1ccc(S(=O)(=O)N(C)CCCC(=O)N2CCN(c3ccccn3)CC2)cc1`, the Potency was inactive: > 76.9 µM. `O=C(NC1CC1)C1CSC(c2cccnc2)=N1` (stereo not drawn): the Potency was inactive: > 76.9 µM. The figure for `Cc1ccc(C(=O)C2CN3CCC2CC3)cc1` (stereo not drawn) is inactive: > 76.9 µM; for `CCOC(=O)N1CCN(C(C)C(=O)c2c[nH]c3ccccc23)CC1` (stereo not drawn) it is inactive: > 76.9 µM; for `CNP(=S)(NC)OCCOc1ccc(OC)cc1` it is inactive: > 76.9 µM. With `COc1cc(C2NCc3ccccc3-n3cccc32)ccc1O` (stereo not drawn), the Potency is inactive: > 76.9 µM. Under `CC1CC2(O)c3no[n+]([O-])c3CCC2N1O` (stereo not drawn) stands inactive: > 76.9 µM. The figure for `Cn1cc(CCC(=O)N2CCC3(CC2)OCCO3)c2ccccc21` is inactive: > 76.9 µM; for `OCCNc1c2c(nc3ccccc13)CCCC2` it is inactive: > 76.9 µM; for `COc1ccc(OC)c(C2=NOC(C(=O)N3CCC4(CC3)OCCO4)C2)c1` (stereo not drawn) it is inactive: > 76.9 µM. Under `COc1ccc(C(=O)C(Cc2ccccc2)N(C)C)cc1` (stereo not drawn) stands “inactive”; under `Cc1ccc2nsnc2c1-n1c(C)nc2ccccc2c1=O`, inactive: > 76.9 µM. As for `CCCc1[nH]nc2c1C1(C(=O)N(CC(N)=O)c3ccccc31)C(C(=O)OC)=C(N)O2` (stereo not drawn), the Potency was inactive: > 76.9 µM.

Consider `C1=C(c2c[nH]c3ccccc23)CCNC1`, for which the Potency was inactive: > 76.9 µM. Under `C=CCN1C(=O)C2(C(C(=O)OCC)=C(N)Oc3ccccc32)C2=C1CCCC2=O` (stereo not drawn) stands inactive: > 76.9 µM. Under `Cc1nc2ccccc2c(=O)n1-n1cnnc1` stands inactive: > 76.9 µM; under `CCOC(=O)C(O)(c1ccc(N(CC)C(=O)OC)cc1)C(F)(F)F` (stereo not drawn), inactive: > 76.9 µM. The figure for `Oc1cc2c(cc1CN1CCN(c3ccccc3)CC1)CCC2` is inactive: > 76.9 µM; for `CC1(C)CN=C(Nc2nc3ccccc3s2)S1` it is inactive: > 76.9 µM; for `O=C(C1CCC(=O)N1Cc1ccc(F)cc1)N1CCC2(CC1)OCCO2` (stereo not drawn) it is inactive: > 76.9 µM. On to `CN1C(=O)N(C)C(=O)C2(Sc3ccccc3C2=O)C1=O`, for which the Potency is inactive: > 76.9 µM. Under `O=C(c1cc2c(s1)CCCCCC2)N1CCC2(CC1)OCCO2` stands inactive: > 76.9 µM; under `CCC1(CC)C(=O)NC(=NCCc2c[nH]c3ccccc23)NC1=O`, inactive: > 76.9 µM; under `O=C1OCCC1NC1=NCCC1` (stereo not drawn), inactive: > 76.9 µM.
